Reference: article PMC4336329 (PLoS ONE, 2015)
Among all 310,000 compounds or so, about 2,200 (0.71%) showed an effect of 50% or more. The effect is printed as a negative number. Some of the results follow.

These compounds were tested against human ether-à-go-go-related gene (hERG) potassium channel (human, UniProt Q12809) (assay: primary screen, population patch clamp on CHO cells stably expressing hERG).
human ether-à-go-go-related gene (hERG) potassium channel, sequence (Q12809 whole entry, looked up): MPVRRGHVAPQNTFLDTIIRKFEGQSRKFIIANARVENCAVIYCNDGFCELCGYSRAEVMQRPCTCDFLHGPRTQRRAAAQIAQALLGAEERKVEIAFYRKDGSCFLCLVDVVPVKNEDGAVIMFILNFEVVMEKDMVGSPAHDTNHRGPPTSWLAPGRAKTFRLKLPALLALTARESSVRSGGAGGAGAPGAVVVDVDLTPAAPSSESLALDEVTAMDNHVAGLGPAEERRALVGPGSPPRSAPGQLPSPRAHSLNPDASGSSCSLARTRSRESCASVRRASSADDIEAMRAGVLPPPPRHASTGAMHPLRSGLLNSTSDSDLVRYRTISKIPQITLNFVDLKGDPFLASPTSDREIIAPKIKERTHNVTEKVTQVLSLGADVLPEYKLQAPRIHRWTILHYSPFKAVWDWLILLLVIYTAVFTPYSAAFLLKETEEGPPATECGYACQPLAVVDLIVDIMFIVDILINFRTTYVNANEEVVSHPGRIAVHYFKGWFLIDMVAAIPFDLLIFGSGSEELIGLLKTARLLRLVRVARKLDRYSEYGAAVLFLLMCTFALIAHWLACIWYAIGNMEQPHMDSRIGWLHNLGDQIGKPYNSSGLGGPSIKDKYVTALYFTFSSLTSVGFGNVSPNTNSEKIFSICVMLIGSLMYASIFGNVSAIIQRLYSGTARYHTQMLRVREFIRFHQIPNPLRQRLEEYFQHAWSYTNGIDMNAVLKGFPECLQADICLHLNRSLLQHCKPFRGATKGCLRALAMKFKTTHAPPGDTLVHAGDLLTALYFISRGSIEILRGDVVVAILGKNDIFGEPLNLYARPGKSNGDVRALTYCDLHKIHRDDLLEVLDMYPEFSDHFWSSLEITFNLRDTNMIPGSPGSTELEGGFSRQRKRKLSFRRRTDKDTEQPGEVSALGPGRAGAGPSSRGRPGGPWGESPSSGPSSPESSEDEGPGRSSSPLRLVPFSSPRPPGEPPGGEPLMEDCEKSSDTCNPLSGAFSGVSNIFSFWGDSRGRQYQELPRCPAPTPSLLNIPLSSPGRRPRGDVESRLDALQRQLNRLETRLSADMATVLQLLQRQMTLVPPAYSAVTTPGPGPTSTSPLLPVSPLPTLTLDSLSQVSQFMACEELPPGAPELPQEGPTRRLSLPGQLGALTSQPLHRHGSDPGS

Question: Which “hERG current change (%, negative = inhibition) at 1uM” value does the source give for COc1cc(C2CC(c3cccs3)=NN2C(=O)CCl)ccc1OC(F)F (stereo not shown) here?
Answer: 11.9%

Question: How did the “hERG current change (%, negative = inhibition) at 1uM” value turn out when CC(NS(=O)(=O)c1ccc2c(c1)CC(=O)N2C)c1ccccc1 (stereo not shown) was run?
Answer: 12.4%

Question: With COc1cccc2c(=O)c(C(=O)O)c[nH]c12 as the compound, how does the “hERG current change (%, negative = inhibition) at 1uM” value read?
Answer: 8.52%

Question: With O=C(/C=C/c1c(Cl)nc2ccccn12)N1CCN(c2ccc(F)cc2)CC1 as the compound, how does the “hERG current change (%, negative = inhibition) at 1uM” value read?
Answer: -14.3%

Question: For Cc1cc(C)cc(NC(=O)CSc2nnc(C3CC3)n2CC2CCCO2)c1 (stereo not shown), which “hERG current change (%, negative = inhibition) at 1uM” value is on record?
Answer: -1.15%

Question: With O=C(Nc1ccccc1)C1CC(O)CN1S(=O)(=O)c1ccc([N+](=O)[O-])cc1 (stereo not shown) as the compound, how does the “hERG current change (%, negative = inhibition) at 1uM” value read?
Answer: 10.4%

Question: For CCc1nnc(NC(=O)CSc2nnc(C3CCCCC3)n2-c2cccc(Cl)c2)s1, which “hERG current change (%, negative = inhibition) at 1uM” value is on record?
Answer: 4.97%

Question: With Cc1ccc2oc(=O)n(Cc3ccccc3)c2c1 as the compound, how does the “hERG current change (%, negative = inhibition) at 1uM” value read?
Answer: 13.7%

Question: CCOC(=O)c1c(NC(=O)Cc2cccs2)sc(C)c1C was tested. Which “hERG current change (%, negative = inhibition) at 1uM” value did it give?
Answer: 9.47%

Question: With COc1ccccc1NC(=O)N(Cc1ccc2c(c1)OCO2)Cc1nc2ccccc2c(=O)[nH]1 as the compound, how does the “hERG current change (%, negative = inhibition) at 1uM” value read?
Answer: 2.05%

Question: With COc1ccc(C(=O)Nc2ccc(S(=O)(=O)N3CCCC3)cc2)c(OC)c1 as the compound, how does the “hERG current change (%, negative = inhibition) at 1uM” value read?
Answer: 2.14%

Question: With COC(=O)CSC1=C(C#N)C(c2ccccc2F)CC(=O)N1 (stereo not shown) as the compound, how does the “hERG current change (%, negative = inhibition) at 1uM” value read?
Answer: 9.57%

Question: O=C(Nc1cc2c(oc1=O)CCCC2=O)c1ccccc1 was tested. Which “hERG current change (%, negative = inhibition) at 1uM” value did it give?
Answer: 4.57%

Question: How did the “hERG current change (%, negative = inhibition) at 1uM” value turn out when O=C(c1nc2ccccn2c1CNCCCn1cccn1)N1CCCC1 was run?
Answer: -1.07%

Question: For CC(=O)Nc1ccc(NC(=O)C2CCN(S(=O)(=O)c3cccc4nonc34)CC2)cc1, which “hERG current change (%, negative = inhibition) at 1uM” value is on record?
Answer: -1.2%

Question: How did the “hERG current change (%, negative = inhibition) at 1uM” value turn out when COC(=O)c1ccccc1NC(=O)C1CCN(C(=O)c2cc(OC)c(OC)c(OC)c2)CC1 was run?
Answer: -0.2%

Question: For C=CCn1c[n+](CC(=O)c2ccc(Br)s2)c2ccccc21.[Br-], which “hERG current change (%, negative = inhibition) at 1uM” value is on record?
Answer: 10.7%

Question: CC(=O)c1c(C)[nH]c(C(=O)COC(=O)CCOc2ccc(C)cc2)c1C was tested. Which “hERG current change (%, negative = inhibition) at 1uM” value did it give?
Answer: 1.4%

Question: Which “hERG current change (%, negative = inhibition) at 1uM” value does the source give for CCc1ccc(NC(=O)c2ccc(C3SCC(=O)N3CCc3ccccc3)cc2)cc1 (stereo not shown) here?
Answer: 9.81%

Question: Which “hERG current change (%, negative = inhibition) at 1uM” value does the source give for O=C(Cc1cccs1)Nc1ccc(NC(=O)c2ccco2)cc1 here?
Answer: 11.2%

Question: How did the “hERG current change (%, negative = inhibition) at 1uM” value turn out when O=C(NNC(=O)c1ccccc1OCc1ccccc1Cl)c1csc(N2CCOCC2)n1 was run?
Answer: 14.1%

Question: Which “hERG current change (%, negative = inhibition) at 1uM” value does the source give for CCc1ccc(-c2nn[nH]n2)cc1 here?
Answer: 9.33%

Question: With Cc1ccc(NC(=O)CSc2nc3c(c(=O)[nH]2)CN(Cc2ccc(F)cc2)CC3)cc1C as the compound, how does the “hERG current change (%, negative = inhibition) at 1uM” value read?
Answer: 1.23%

Question: How did the “hERG current change (%, negative = inhibition) at 1uM” value turn out when Cc1nc2c(ccc3nc(NC(=O)C(c4ccccc4)c4ccccc4)sc32)s1 was run?
Answer: 20.3%

Question: For Cc1c(CNCC(C)c2ccccc2)c(C(=O)O)c(C)n1Cc1ccccc1 (stereo not shown), which “hERG current change (%, negative = inhibition) at 1uM” value is on record?
Answer: -0.168%

Question: How did the “hERG current change (%, negative = inhibition) at 1uM” value turn out when CS(=O)(=O)c1ccc(Cl)c(NC(=O)C2CCCCN2S(=O)(=O)c2ccccc2)c1 (stereo not shown) was run?
Answer: -2.17%

Question: How did the “hERG current change (%, negative = inhibition) at 1uM” value turn out when C/C=C/Cn1c(SCCCc2ccccc2)nc2c1c(=O)[nH]c(=O)n2C was run?
Answer: -8.47%

Question: How did the “hERG current change (%, negative = inhibition) at 1uM” value turn out when O=C(Nc1cccc2cccnc12)c1cc(F)c(F)cc1Cl was run?
Answer: 18.6%

Question: Which “hERG current change (%, negative = inhibition) at 1uM” value does the source give for O=C(CNS(=O)(=O)c1ccc2ccccc2c1)OCc1csc(-c2ccccc2)n1 here?
Answer: 8.11%

Question: With Cc1cc2cccc(C)c2nc1SCC(=O)N(C)c1nc(-c2ccccc2)cs1 as the compound, how does the “hERG current change (%, negative = inhibition) at 1uM” value read?
Answer: 11.3%

Question: How did the “hERG current change (%, negative = inhibition) at 1uM” value turn out when CCN(CC)S(=O)(=O)c1ccc(S(=O)(=O)N(CC(=O)Nc2ccccc2)CC2CCCO2)cc1 (stereo not shown) was run?
Answer: 5.1%

Question: How did the “hERG current change (%, negative = inhibition) at 1uM” value turn out when CCN(CC)CCn1c(NCc2ccco2)nc2ccccc21.Cl was run?
Answer: -42.6%

Question: For Nc1n[nH]c(N)c1N=Nc1ccc(Cl)cc1, which “hERG current change (%, negative = inhibition) at 1uM” value is on record?
Answer: 2.25%

Question: With CC(CS(=O)(=O)c1ccc2c(c1)NC(=O)CS2)C(=O)NCc1ccccc1Cl (stereo not shown) as the compound, how does the “hERG current change (%, negative = inhibition) at 1uM” value read?
Answer: 11.5%

Question: How did the “hERG current change (%, negative = inhibition) at 1uM” value turn out when Cc1cccc(Nc2nc(-c3c(C)nc4ccccn34)cs2)c1 was run?
Answer: 9.23%

Question: For COC(=O)C1=C(C)N(CC2CC2)C(=NCCN2CCOCC2)N[C@H]1c1ccccc1, which “hERG current change (%, negative = inhibition) at 1uM” value is on record?
Answer: 4.63%

Question: For Cc1cc(OCC(=O)N(C)C)c2c(-c3ccccc3)cc(=O)oc2c1, which “hERG current change (%, negative = inhibition) at 1uM” value is on record?
Answer: -7.58%

Question: With COc1ccc2[nH]c3c(=O)n(CCCN4CCOCC4)cnc3c2c1 as the compound, how does the “hERG current change (%, negative = inhibition) at 1uM” value read?
Answer: 10.2%

Question: With CCCCc1nc(N2CCOCC2)c(C#N)c2c1COC(C)(C)C2 as the compound, how does the “hERG current change (%, negative = inhibition) at 1uM” value read?
Answer: 7.91%

Question: With COc1ccc(NC(=O)CSc2nc(SC)ns2)c(OC)c1 as the compound, how does the “hERG current change (%, negative = inhibition) at 1uM” value read?
Answer: 23.1%

Question: How did the “hERG current change (%, negative = inhibition) at 1uM” value turn out when CC(=O)c1cc(F)ccc1OCC(=O)N1CCN(c2ccc(F)cc2)CC1 was run?
Answer: -7.16%

Question: For CC(=O)Nc1ccc(S(=O)(=O)N2CCC(c3nnc(-c4ccc(C)cc4)o3)CC2)cc1, which “hERG current change (%, negative = inhibition) at 1uM” value is on record?
Answer: -2.65%

Question: With Cc1cc(C)n2nc(SCc3nnc(-c4ccccc4Br)o3)nc2n1 as the compound, how does the “hERG current change (%, negative = inhibition) at 1uM” value read?
Answer: 6.2%
